Results: PubChem BioAssay AID1645887 (National Center for Advancing Translational Sciences (NCATS), 2021)
Values joined by “and” are separate entries in the source; they are usually repeats but may differ in a detail not shown here. Identical values can stand only once. Screen size: about 16,000 compounds; about 40 (0.2%) were called active. About 1% were inconclusive and are not listed. The call rests on the fitted dose curve; in most records, active means well fitted activation curve with a large enough effect; inconclusive means small, poorly fitted or top-dose-only effect, or another doubt; inactive means no such curve, though single readings can be large or run the other way. This is one part of the list.

What follows are compounds tested against Rap guanine nucleotide exchange factor 4 (Homo sapiens) (UniProt Q8WZA2) (assay: Validation qHTS for agonist of cAMP-regulated guanine nucleotide exchange factor 4 (EPAC2)). Conditions: EPAC2 Rap1B BODIPY-GDP exchange, fluorescence; activation: active compounds read high.
Chain of UniProt Q8WZA2 (Q8WZA2 whole entry, looked up): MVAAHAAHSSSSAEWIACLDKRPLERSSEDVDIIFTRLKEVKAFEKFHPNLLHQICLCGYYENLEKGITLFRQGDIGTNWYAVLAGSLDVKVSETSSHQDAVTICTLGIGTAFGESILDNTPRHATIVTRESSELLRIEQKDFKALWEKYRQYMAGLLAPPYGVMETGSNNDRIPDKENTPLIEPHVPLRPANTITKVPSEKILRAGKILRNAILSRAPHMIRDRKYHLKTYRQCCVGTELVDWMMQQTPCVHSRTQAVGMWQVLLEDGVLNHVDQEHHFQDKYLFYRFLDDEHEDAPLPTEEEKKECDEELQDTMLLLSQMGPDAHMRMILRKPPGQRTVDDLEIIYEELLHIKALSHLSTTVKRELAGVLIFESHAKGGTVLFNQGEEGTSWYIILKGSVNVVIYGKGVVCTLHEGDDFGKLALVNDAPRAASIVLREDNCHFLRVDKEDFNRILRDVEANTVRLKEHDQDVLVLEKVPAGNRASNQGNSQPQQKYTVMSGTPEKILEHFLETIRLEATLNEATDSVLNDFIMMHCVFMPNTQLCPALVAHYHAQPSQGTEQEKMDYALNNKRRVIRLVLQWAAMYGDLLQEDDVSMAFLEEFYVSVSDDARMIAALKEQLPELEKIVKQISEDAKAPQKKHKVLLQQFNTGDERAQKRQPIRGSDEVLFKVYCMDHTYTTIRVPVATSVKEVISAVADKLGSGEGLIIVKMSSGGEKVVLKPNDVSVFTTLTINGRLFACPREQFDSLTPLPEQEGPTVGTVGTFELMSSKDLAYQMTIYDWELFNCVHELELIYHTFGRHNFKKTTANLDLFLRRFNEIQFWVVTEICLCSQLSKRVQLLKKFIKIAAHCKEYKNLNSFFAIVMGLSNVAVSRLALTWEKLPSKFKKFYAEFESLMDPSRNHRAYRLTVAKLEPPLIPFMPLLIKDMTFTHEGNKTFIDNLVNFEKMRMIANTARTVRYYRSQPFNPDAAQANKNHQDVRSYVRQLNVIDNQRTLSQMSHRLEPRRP
Source text: Principle Investigator: Xiaodong Cheng Ph.D.
The University of Texas Medical Branch, […], TX
In multi-cellular eukaryotic organisms, the effects of cAMP are transduced by two ubiquitously-expressed intracellular cAMP receptors, the classic protein kinase A/cAMP-dependent protein kinase (PKA/cAPK) and the more recently discovered exchange protein directly activated by cAMP/cAMP-regulated guanine nucleotide exchange factor (EPAC/cAMP-GEF). Both PKA and EPAC are ubiquitously expressed in all tissues, and an increase in intracellular cAMP levels will lead to the activation of both PKA and EPAC. Therefore, careful dissections of the individual role and relative contribution of EPAC and PKA within the overall cAMP signaling in various model systems are critical for further elucidating the mechanism of cAMP signaling. To date no EPAC-specific antagonists and agonist, as well as isoform-specific agonists have been reported, and developing EPAC-specific pharmacological probes to determine the physiological functions that EPAC play in the overall cAMP-mediated signaling remains a major challenge within the research field. Furthermore, identified regulators of EPAC may lead to new mechanism-based therapeutic strategies specifically targeting the EPAC / cAMP-signaling components as EPAC has been implicated to play important roles in major human pathological conditions such as diabetes, heart disease, and cancer.
This qHTS will be used to screen the Molecular Libraries Small Molecule Repository (MLSMR) as a concentration-titration series using the NCGC unique quantitative screening (qHTS) platform to find activators for EPAC1. In addition, this assay will also be used as a counterscreen for the EPAC2 qHTS. This fluorescent based assay is developed and validated for EPAC1 that measures exchange using EPAC effector Rap1 complex with BODIPY-GDP, a GDP analog with a tethered fluorophores. Activators are identified by monitoring the change in fluorescence signal as the exchanged free BODIPY-GDP has a reduced fluorescence compared to Rap1-bound BODIPY-GDP. Increase in signal (activation) is the desired outcome for the EPAC1 agonist while no activity in this assay is desired for the EPAC2 agonist counterscreen.
[1] de Rooij, J., Zwartkruis, F. J., Verheijen, M. H., Cool, R. H., Nijman, S. M., Wittinghofer, A., and Bos, J.L. (1998) Nature 396, 474-477.
Briefly, three uL of reagents (100 nM EPAC2, 250 nM RAP1B-BODIPY-GDP, 50 uM GDP) were dispensed into a 1536-well Greiner black solid-bottom medium binding assay plate. Controls and test compounds (23 nL) were transferred to the plate via a Kalypsys pin tool equipped with a 1536-pin array. The plates were centrifuged at 1,000 rpm for 15 seconds followed by 5 minute incubation at room temperature. The assay plates were read at 5 minute intervals for 30 minutes in the ViewLux plate reader using 480nm excitation and 540nm emission filters. The results were normalized to the agonist positive control of 6.5 mM cAMP.
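Further: exchange makes BODIPY-GDP fluorescence drop when released from Rap1B; series mostly up to about 150 µM.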
On the % scale 0 is the no-effect control and ±100 the full control effect.

| Compound | activation |
| --- | --- |
| C[N+](C)(C)CC#CCOC(=O)Nc1cccc(Cl)c1 | inactive: 3.63% and inactive: -15.3% |
| C=C1C(=O)O[C@@H]2C[C@@H](C)[C@@H]3C=CC(=O)[C@@]3(C)[C@@H](O)[C@H]12 | inactive: -4.68% |
| N#C/C(=C\c1ccc(O)cc1)C(=O)O | inactive: -15% |
| CC(=O)Oc1ccc(/C=C/c2cc(OC(C)=O)cc(OC(C)=O)c2)cc1 | inactive: -23.3% |
| C=CCN1CCC23c4c5ccc(O)c4O[C@H]2C(=O)CC[C@@]3(O)C1C5 (some centres not stated) | inactive: -11.3% |
| CN1[C@@H]2CC[C@H]1CC(O[C@@H](c1ccccc1)c1ccc(Cl)cc1)C2 (some centres not stated) | inactive: -6.51% |
| CC(C)(O)C(Cl)(Cl)Cl | inactive: -10.6% |
| Cc1ncc(CNC(=O)N(CCCl)N=O)c(N)n1 | inactive: -7.13% and inactive: -23.3% |
| CC1(C)C(=O)C=C[C@@]2(C)C1=C(O)C(=O)[C@@]1(C)C2CC[C@@]2(C)C(c3ccoc3)C[C@H]3O[C@@]321 (some centres not stated) | inactive: 0.564% |
| CC(N)[C@H](O)c1ccc(O)c(O)c1 (some centres not stated) | inactive: -20.5% |
| CCC1C(C)=NN=C(c2ccc(OC)c(OC)c2)c2cc(OC)c(OC)cc21 (configuration not stated) | inactive: -1.63% |
| CC(C)=CC1C(C(=O)OCN2C(=O)C3=C(CCCC3)C2=O)C1(C)C (configuration not stated) | inactive: -9.01% |
| CN1CCCCC1c1ccc(-c2cccnc2)nc1 (configuration not stated) | inactive: -12.6% and inactive: -17% |
| C[C@]12CCC(=O)C[C@@H]1CC[C@@H]1[C@@H]2CC[C@]2(C)[C@@H](O)CC[C@@H]12 | inactive: -5.55% |
| CCCCCCCCCc1ccc(O)cc1 | inactive: -49.8% |
| CC(=O)OC1C(=O)[C@]2(C)C(O)CC3OC[C@]3(OC(C)=O)C2[C@@H](OC(=O)c2ccccc2)[C@]2(O)CC(O)C(C)=C1C2(C)C (some centres not stated) | inactive: -19.5% |
| CC1C(=O)OC2O[C@]3(C)CC[C@H]4C(C)CCC1[C@]24OO3 (some centres not stated) | inactive: -1.42% |
| O=C(OCCN1CCCCC1)C(O)(c1ccccc1)c1ccccc1 | inactive: -7.15% |
| C[C@]12CCC3C(C=CC4=CC(=O)CC[C@]43C)C1CC[C@]2(O)CCC(=O)O (some centres not stated) | inactive: -1.81% |
| N#Cc1cccc(NC(=O)N2CCCC3(CCN(C(=O)Oc4ccccc4)CC3)C2)c1 | inactive: -7.22% |
| [O]=[Cr](=[O])([OH])[O][Cr](=[O])(=[O])[OH] | inactive: -19.4% and inactive: 2.41% |

| Compound | activation |
| --- | --- |
| c1ccc(CN2CCC3(CCNCC3)CC2)cc1 | inactive: -9.67% |
| CC(C)(C)NCC(O)c1cc(Cl)c(N)c(C(F)(F)F)c1 (configuration not stated) | inactive: -16.5% |
| CN(C)CCc1c[nH]c2ccc(O)cc12 | inactive: -3.02% |
| COC([CH2][Hg])CNC(=O)c1ccccc1OCC(=O)O (configuration not stated) | inactive: -0.449% |
| COC(=O)N1CCC2(CCCN(C)C2)CC1 | inactive: -1.67% |
| C[C@@]12CCC(=O)C[C@@H]1CC[C@@H]1[C@@H]2CC[C@]2(C)C(=O)CC[C@@H]12 | inactive: -12% |
| CN1CC[C@@]2(CCCN(C(=O)c3ccncc3)C2)C1 | inactive: -14.8% |
| CC1(C)OC1COc1c2occc2cc2ccc(=O)oc12 (configuration not stated) | inactive: -13.3% |
| CCCC[N+]1(C)[C@@H]2CC(OC(=O)[C@H](CO)c3ccccc3)C[C@H]1[C@@H]1O[C@@H]12 (some centres not stated) | inactive: 14.7% |
| C=CCN(C1=NCCN1)c1c(Cl)cccc1Cl | inactive: -2.78% and inactive: -15.8% |
| CC[C@@]1(O)C(=O)OCc2c1cc1n(c2=O)Cc2cc3ccccc3nc2-1 | inactive: 0.565% and inactive: -14.7% and inactive: -17.1% |
| CN(C)[C@@H]1C(=O)C(C(N)=O)=C(O)[C@@]2(O)C(=O)C3=C(O)c4c(O)ccc(Cl)c4[C@@](C)(O)[C@H]3C[C@@H]12 | inactive: -6.83% |
| N#C/C(=C/c1ccc(O)c(O)c1)C(N)=S | inactive: -17.9% |
| O=C(c1ccco1)N1CCC[C@@]2(CCN(Cc3ccncc3)C2)C1 | inactive: -6.57% |
| CN1CCN(C(=O)O[C@@H]2c3nccnc3C(=O)N2c2ccc(Cl)cn2)CC1 | inactive: -20.4% |
| CC[N+](CC)(CCCNC1=CC(=O)C(NCCC[N+](CC)(CC)Cc2ccccc2)=CC1=O)Cc1ccccc1 | inactive: -6.48% and inactive: 2.59% |
| O=C1C[C@@H]2OCC=C3CN4CC[C@]56c7ccccc7N1[C@H]5[C@H]2[C@H]3C[C@H]46 | inactive: -16.8% |
| O=C/C=C/c1ccccc1 | inactive: -5.14% |
| Clc1cccc(N2CCNCC2)c1 | inactive: -1.72% and inactive: 7.77% |
| COc1ccc2[nH]cc(CCNCc3ccc(Br)cc3)c2c1 | inactive: 15.2% |
| CCCN(CCC)C(=O)Cc1c(-c2ccc(Cl)cc2)nc2ccc(Cl)cn12 | inactive: -8.75% |
